Source: PubChem BioAssay AID493208 (National Center for Advancing Translational Sciences (NCATS), 2011)
Out of some 44,000 compounds screened, about 340 (0.77%) were called active. Another 5% or so got no clear call; they are omitted. The call rests on the fitted dose curve; in most records, active means well fitted inhibition curve with a large enough effect; inconclusive means small, poorly fitted or top-dose-only effect; inactive means flat fitted curve, though single readings scatter. The list shows a part of the results.

Test: Acumen qHTS Assay for Inhibitors of the mTORC1 Signaling Pathway in MEF (Tsc2-/-, p53-/-) Cells: Sytravon;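 further: plate controls were DMSO for no effect and rapamycin for full effect; nearly all actives have a fitted effect of over 50% in size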
Conditions: phospho-rpS6 immunofluorescence/PI, 24 h; series mostly up to 38.3 µM; activity change, negative = inhibition: at the top concentration
Method in brief: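 Cell-based qHTS: Tsc2-/- p53-/- MEF, 24 h cpd, 37 °C; fix/perm, anti-phospho-S6 Alexa-488 + PI; Acumen 488 nm scan; pS6/PI ratio, % positive cells; rapamycin 7.5 nM = inhibition ref; PI count = viability.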

Structure (SMILES)	activity change, negative = inhibition
CCc1ccc(NC(=O)C2CCCN(S(=O)(=O)c3cccc4nonc34)C2)cc1 (configuration not stated)	inactive: 0.936%
Cc1cc(C)c(NS(=O)(=O)c2cc(-c3cnc(C4CC4)o3)ccc2C)c(C)c1	inactive: 29.9%
COc1ccc(CNC(=O)C2CCN(S(=O)(=O)c3ccc4nc5c(c(C(=O)O)c4c3)CC(C)CC5)CC2)cc1 (configuration not stated)	inactive: 0.558%
CCc1ccc(NC(=O)c2c(C(=O)Nc3ccccc3)sc3nc(C)cc(=O)n23)cc1	inactive: -2.78%
CN1C(=O)Cc2cc(S(=O)(=O)CCC(=O)N3CCN(c4cccc(Cl)c4)CC3)ccc21	inactive: -9.52%
COc1cc(-c2noc(C3CC(=O)N(c4cc(C)ccc4C)C3)n2)cc(OC)c1OC (configuration not stated)	inactive: -2.31%
Cc1ccsc1CCN1C(=O)N(c2ccc(F)cc2)C(=O)C1CC(=O)Nc1ccccc1 (configuration not stated)	inactive: -2.25%
COc1cccc(NS(=O)(=O)c2cc3c4c(c2)C(C)C(=O)N4CCC3)c1 (configuration not stated)	inactive: -2.08%
COc1cccc(-c2cc(C(=O)N3CCN(c4ccc(F)cc4)CC3)no2)c1	inactive: -6.34%
CCOc1ccc(NC(=O)Cn2cnc3c(oc4ccccc43)c2=O)cc1	inactive: 7.26%
CC(C)(C)OC(=O)N1CCC(c2c(C(=O)NCc3ccccn3)cnn2-c2ccc(F)cc2)CC1	inactive: -1.97%
COc1ccc2c(c1)c1c(c(=O)n(-c3cccc(C)c3)c(=O)n1CC(=O)N1CCCC1)n2C	inactive: -1.12%
Cc1cc(C)c2c(=O)cc(C(=O)Nc3ccc(S(=O)(=O)Nc4onc(C)c4C)cc3)oc2c1	inactive: -1.44%
Cc1ccc2c(=O)cc(C(=O)Nc3c(C(=O)c4ccccc4)oc4ccccc34)oc2c1C	inactive: 2.31%
CCN1C(=O)c2ccccc2Sc2ccc(NC(=O)Cc3ccc(OC)cc3)cc21	inactive: -6.33%
COc1ccc(-c2cc(-c3ccccc3)nc3c2COc2ccccc2-3)cc1	inactive: -20.8%
CCCn1cc(S(=O)(=O)c2cc(C)ccc2C)c(=O)c2cc(F)c(N3CCCCCC3)cc21	inactive: 1.57%
CCOc1ccc(NCc2cccn2-c2nnc(N3CCC(C(=O)NCc4cccc(OC)c4)CC3)s2)cc1	inactive: -1.15%
CC(C)CC(=O)Nc1nnc2n1CCS2	inactive: 2.58%
COc1ccc(-n2nnc(C(=O)Nc3ccccc3F)c2N)cc1	inactive: -19%
CCc1ccccc1N(c1nc(-c2ccc(OC)c(OC)c2)no1)c1nc(-c2ccc(OC)c(OC)c2)no1	inactive: 0.403%
COc1cccc(NC(=O)C(=O)NCCc2csc3nc(-c4ccccc4C)nn23)c1	inactive: 4.44%
CC(=O)NCc1nc2cccnc2n1Cc1ccccc1	inactive: -1.26%
CC(=O)c1cc(-c2ccccc2)n(CCC(=O)NCCc2ccccc2)c1C	inactive: -2.55%

Structure (SMILES)	activity change, negative = inhibition
COC(=O)c1c(NC(=O)c2nc(SC)ncc2Cl)sc2c1CCCC2	inactive: 3.52%
Cc1ccc(Cc2nc3ccccc3nc2SCC(=O)NCCc2ccccc2)cc1	inactive: 0.519%
Cc1cccc(CCNC(=O)c2ccc3c(c2)nc2n3CCCCC2)c1	inactive: 1.33%
Cc1nc2c(-c3ccc(F)cc3)c(C)nn2c(C)c1CCC(=O)N1CCN(c2ccc(F)cc2)CC1	inactive: -0.015%
Cc1oc(-c2cccc(Cl)c2)nc1CSc1nnc(C)n2c1cc1occc12	inactive: 1.83%
CCc1cccc(C)c1NC(=O)Cn1c(=O)n(-c2cccc(C)c2)c(=O)c2c1c1cc(C)ccc1n2C	inactive: -4.72%
COc1ccccc1N1CCN(C(=O)Cn2cnc3sc(C)c(S(=O)(=O)N4CCC(C)CC4)c3c2=O)CC1	inactive: -1.78%
CC(=O)c1cccc(NC(=O)C(C)n2c(=O)cc(-c3ccccc3)c3c(C)nn(C)c32)c1 (configuration not stated)	inactive: -5.09%
COc1cccc(CNC(=O)c2ccc(NC(=O)N3CCCCc4ccccc43)cc2)c1OC	inactive: -5.4%
CCOc1cccc(OCCCn2c(-c3ccc(Br)cc3)nc3ccccc3c2=O)c1	inactive: 2.18%
CCOc1ccc(-c2cc(-c3nc(-c4ccc(C)cc4)no3)[nH]n2)cc1	inactive: -2.86%
CCN1C(=O)c2ccccc2S(=O)(=O)c2ccc(C(=O)NCc3ccccc3Cl)cc21	inactive: 0.663%
COC(=O)CSc1ncc2c(n1)-c1ccccc1N(Cc1cccc(F)c1)S2(=O)=O	inactive: -5.16%
O=C(Cn1c(=O)oc2cc(S(=O)(=O)N3CCCC3)ccc21)NCc1ccc(F)cc1	inactive: -5.71%
CCc1cccc(C)c1NS(=O)(=O)c1c(C)nc2sccn2c1=O	inactive: -6.49%
CCOC(=O)C1CCN(C(=O)CSc2n[nH]c(-c3ccc(F)cc3)n2)CC1	inactive: 0.706%
COc1cccc(CNC(=O)c2c(C)oc3nc(C)nc(N4CCOCC4)c23)c1	inactive: 0.325%
Cc1cc(C(=O)C(=O)Nc2nnc(C(C)C)s2)c(C)n1-c1ccccc1	inactive: 0.266%
CCOC(=O)c1c(-c2ccccc2)csc1NC(=O)c1cc(-c2ccc(C)c(F)c2)on1	inactive: -6.79%
Cc1cccc(C(=O)Nc2ccc(OCc3cc(=O)n4ccsc4n3)cc2)c1	inactive: 3.07%
CCN(CC)S(=O)(=O)c1ccc2c(c1)N(CC(=O)N1CCN(c3ccc(Cl)cc3)CC1)C(=O)CO2	inactive: 1.81%
O=C(Cn1ccc2cc(S(=O)(=O)N3CCCCCC3)ccc21)NCCc1ccc(Cl)cc1	inactive: -13.3%
Cc1ccc(-n2c3c(cc(C(=O)Nc4cccc(Cl)c4)c2=O)C(=O)CC(C)(C)C3)cc1	inactive: -1.33%
